Data published in the supplement of paper PMC4604168 (melanoma cell lines).
The other results are listed elsewhere or left out. Many values rest on one well or one pass, so single values are uncertain.
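Further: cell number obtained by counting DAPI-stained nuclei in high-throughput microscope images with image analysis software, screen run in 1,536-well plates.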

Each compound was assayed on IST-MEL1 (assay: cell count relative to DMSO control; melanoma cells; higher = more viable cells). Conditions: library dose: low library concentration; 72 h.
`CC[C@]1(O)C[C@H]2CN(CCc3c([nH]c4ccccc34)[C@@](C(=O)OC)(c3cc4c(cc3OC)N(C=O)[C@H]3[C@@](O)(C(=O)OC)[C@H](OC(C)=O)[C@]5(CC)C=CCN6CC[C@]43[C@@H]65)C2)C1` [vincristine] + Oc1nc(-c2ccc(C(F)(F)F)cc2)nc2c1CSCC2 [XAV939] (first compound 0.0001 µM, partner dose 2 µM) gave a cell count of 98.4%. Compound `CC[C@]1(O)C[C@H]2CN(CCc3c([nH]c4ccccc34)[C@@](C(=O)OC)(c3cc4c(cc3OC)N(C=O)[C@H]3[C@@](O)(C(=O)OC)[C@H](OC(C)=O)[C@]5(CC)C=CCN6CC[C@]43[C@@H]65)C2)C1` [vincristine] + CC(=O)O[C@@]12CO[C@@H]1C[C@H](O)[C@@]1(C)C(=O)[C@H](O)C3=C(C)[C@@H](OC(=O)[C@H](O)[C@@H](NC(=O)OC(C)(C)C)c4ccccc4)C[C@@](O)([C@@H](OC(=O)c4ccccc4)[C@H]21)C3(C)C [Docetaxel] (first compound 0.0001 µM, partner dose 0.0001 µM) has a cell count of 73.2%. Work on `N#CC[C@H](C1CCCC1)n1cc(-c2ncnc3[nH]ccc23)cn1` [ruxolitinib] + Cn1nnc2c(C(N)=O)ncn2c1=O [temozolomide] (first compound 1 µM, partner dose 2 µM) yielded a cell count of 94.2%. `Cc1cc(Nc2cc(N3CCN(C)CC3)nc(Sc3ccc(NC(=O)C4CC4)cc3)n2)n[nH]1` [Tozasertib] + Nc1nc(F)nc2c1ncn2[C@@H]1O[C@H](CO)[C@@H](O)[C@@H]1O [fludarabine] (first compound 0.006 µM, partner dose 0.2 µM) was tested, and the cell count was 80.4%. With `N#CC[C@H](C1CCCC1)n1cc(-c2ncnc3[nH]ccc23)cn1` [ruxolitinib] + NC(=O)c1ccc(N(C(N)=O)c2c(F)cccc2F)nc1-c1ccc(F)cc1F [VX702] (first compound 1 µM, partner dose 0.4 µM) the cell count was 92.5%.
